pIC50: −log10 of the molar value. Some of these results come from one statement about several compounds together. For at least one compound, name, drawing or mass did not settle the structure.
test system: THP-1 cells; experiment: Inhibition of cell chemotaxis caused by MCP-1; assay type: cell-based, human; details: MCP-1 20 ng/mL, read-out: inhibition of cell migration IC50
Method: Measurement of Inhibition of Cell Chemotaxis
In order to determine the inhibition of cell chemotaxis by the compounds of this invention, we measured cell chemotaxis caused by monocyte chemotactic factor MCP-1 using the human monocytic leukemia cell line THP-1 as the chemotactic cell according to the method of Fall et al. (J. Immunol. Methods, 190, 33,239-247). 2×10^6 cells/mL of THP-1 cells (suspended in RPMI-1640 (Flow Laboratories Co.)+10% FCS) was placed in the upper chamber (200 μL) of a 96 well micro-chemotaxis chamber (Neuroprobe; registered tradename), and human recombinant MCP-1 in a same solution (Peprotech Co.) at a final concentration of 20 ng/mL was placed in the lower chamber, with a polycarbonate filter (PVP-free, Neuroprobe; registered tradename) placed between the two chambers. These were incubated at 37° C. for 2 hr in 5% CO2.
The filter was removed, and the cells which had migrated to the underside of the filter was fixed, stained using Diff Quick (Kokusai Shiyaku Co.) and then quantitated using a plate reader (Molecular Device Co.) at a wavelength of 550 nm to determine the index of cell migration as a mean of 3 wells. In addition, test compounds were placed in the upper and lower chambers along with THP-1 and MCP-1, respectively, and the inhibition of cell migration (inhibition IC50 (μM)) was determined.

Row | pIC50 | SMILES
1 | > 7.00 | O=C(CNC(=O)c1cccc(C(F)(F)F)c1)NC1CCN(Cc2ccc(Cl)cc2)C1 (centres unmarked) [compound 37]
2 | > 7.00 | COc1ccc(CN2CCC(NC(=O)CNC(=O)c3cc(OC(F)(F)F)ccc3N)C2)cc1 (centres unmarked) [compound 1908]
3 | > 7.00 | Nc1ccc(OC(F)(F)F)cc1C(=O)NCC(=O)NC1CCN(Cc2ccc3c(c2)OCO3)C1 (centres unmarked) [compound 1906]
4 | > 7.00 | Cc1ccc(CN2CCC(NC(=O)CNC(=O)c3cccc(OC(F)(F)F)c3)C2)cc1 (centres unmarked) [compound 1203]
5 | > 7.00 | CC(C)c1ccc(CN2CCC(NC(=O)CNC(=O)c3cc(C(F)(F)F)ccc3N)C2)cc1 (centres unmarked) [compound 1709]
6 | > 7.00 | Nc1ccc(C(F)(F)F)cc1C(=O)NCC(=O)N[C@@H]1CCN(Cc2ccc(O)cc2)C1 [compound 1704]
7 | > 7.00 | COc1cc(CN2CC[C@@H](NC(=O)CNC(=O)c3cc(C(F)(F)F)ccc3N)C2)ccc1O [compound 1775]
8 | > 7.00 | Cc1ccc(CN2CCC(NC(=O)CNC(=O)c3cccc(C(F)(F)F)c3)C2)cc1 (centres unmarked) [compound 299]
9 | > 7.00 | Cc1ccc(CN2CC[C@@H](NC(=O)CNC(=O)c3cc(F)cc(C(F)(F)F)c3)C2)cc1 [compound 1293]
10 | > 7.00 | O=C(CNC(=O)c1cccc(C(F)(F)F)c1)N[C@H]1CCN(Cc2ccc3c(c2)CCC3)C1 [compound 1138]
11 | > 7.00 | Nc1ccc(OC(F)(F)F)cc1C(=O)NCC(=O)NC1CCN(Cc2ccc(Cl)cc2)C1 (centres unmarked) [compound 1584]
12 | > 7.00 | COc1ccc(CN2CC[C@@H](NC(=O)CNC(=O)c3cccc(C(F)(F)F)c3)C2)cc1O [compound 1288]
13 | > 7.00 | Cc1cc(O)ccc1CN1CCC(NC(=O)CNC(=O)c2cc(C(F)(F)F)ccc2N)C1 (centres unmarked) [compound 2157]
14 | > 7.00 | CCCc1ccc(CN2CCC(NC(=O)CNC(=O)c3cc(OC(F)(F)F)ccc3N)C2)cc1 (centres unmarked) [compound 1901]
15 | > 7.00 | O=C(CNC(=O)c1cccc(C(F)(F)F)c1)N[C@H]1CCN(Cc2ccc3ccccc3c2)C1 [compound 1142]

target: T1, binding of human MIP-1α to THP-1 cells (Homo sapiens, UniProt P32246); experiment: Inhibition of MIP-1α binding to THP-1 cells; details: at 10 μM
T1 construct: endogenous in cells; host or cells: THP-1 (human monocytic leukemia cell line), whole cells
T1 sequence (P32246 1-355): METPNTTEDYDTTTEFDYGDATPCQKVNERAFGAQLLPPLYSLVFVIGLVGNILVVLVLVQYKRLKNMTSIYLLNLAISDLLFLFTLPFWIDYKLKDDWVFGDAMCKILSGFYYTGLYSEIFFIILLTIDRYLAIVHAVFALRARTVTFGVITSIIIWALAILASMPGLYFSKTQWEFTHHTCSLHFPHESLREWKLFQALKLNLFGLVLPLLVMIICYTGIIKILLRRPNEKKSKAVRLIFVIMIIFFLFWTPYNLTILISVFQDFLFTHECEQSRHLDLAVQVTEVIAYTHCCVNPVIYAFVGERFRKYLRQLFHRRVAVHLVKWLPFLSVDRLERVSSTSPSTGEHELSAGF

Row | inhibition of MIP-1α binding to THP-1 cells | SMILES
16 | 20-50% | O=C(CNC(=O)c1cccc(C(F)(F)F)c1)NCC1CCN(Cc2ccc([N+](=O)[O-])cc2)CC1 [compound 878]
17 | 20-50% | O=C(CNC(=O)c1cc2cc(F)ccc2[nH]1)NCC1CCN(Cc2ccc(Cl)cc2)CC1 [compound 554]
18 | 20-50% | CC(OC(=O)Nc1cccc(Cl)c1)C(=O)NC1CCCN(Cc2ccc(Cl)cc2)C1 (racemic) [compound 383]
19 | 20-50% | O=C(CNC(=O)c1cccc(C(F)(F)F)c1)NC1CCN(Cc2ccc(Cl)cc2)C1 (centres unmarked) [compound 37]

target: T2, binding of human MCP-1 to THP-1 cells (Homo sapiens, UniProt P41597); experiment: Inhibition of binding of [125I]-labeled baculovirus expressed human MCP-1 to THP-1 cells (Method 1); details: Method 1, at 10 μM
T2 construct: endogenous in cells; host or cells: THP-1 (human monocytic leukemia cell line), whole cells
T2 sequence (P41597 1-360 isoform P41597-2): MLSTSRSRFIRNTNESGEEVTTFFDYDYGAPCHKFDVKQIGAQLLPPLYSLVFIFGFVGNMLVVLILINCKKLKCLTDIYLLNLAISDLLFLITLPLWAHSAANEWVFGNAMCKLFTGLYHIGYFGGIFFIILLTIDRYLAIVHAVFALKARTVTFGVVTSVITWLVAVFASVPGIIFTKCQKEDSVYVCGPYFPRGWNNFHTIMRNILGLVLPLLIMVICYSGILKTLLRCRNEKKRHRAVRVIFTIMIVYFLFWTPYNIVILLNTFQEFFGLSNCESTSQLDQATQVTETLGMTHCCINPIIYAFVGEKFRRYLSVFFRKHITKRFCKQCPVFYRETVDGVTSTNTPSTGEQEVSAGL
Excerpt: Measurement of Inhibition of MCP-1 Binding to THP-1 Cells 1. Construction of recombinant baculovirus carrying the human MCP-1 gene Based on the previously published human MCP-1 gene sequence (for example T. Yoshirnura et al., FEBS Lett., 1989, 244, 487-493), two synthetic DNA primers ([NT] and [NT]) flanked by restriction enzyme sites were used to amplify a DNA fragment from cDNA derived from human endothelial cells (purchased from Kurabow Co.); the amplified fragment was cut with the restriction enzymes (PstI and XbaI), ligated into a transfer vector pVL1393 (Invitrogen Co.), and the resulting vector was co-transfected along with infectious baculovirus into Sf-9 insect cells and the supernatant was plaque assayed to yield human MCP-1 gene baculovirus recombinant. […] Using the method of K. Ishii et al. […] The culture supernatant was affinity purified using a heparin Sepharose column (Pharmacia Co.) and then further purified using reverse phase HPLC (Vydac C18 column) to prepare purified human MCP-1. […] 3-1. […] The test. compound was diluted in the assay buffer and used as the test compound solution. [^125I]-labeled human MCP-1 described above was diluted in assay buffer to 1 mCi/mL and used as the labeled ligand solution. In a 96 well filter plate (Millipore Co.), 25 μL of test compound solution, 25 μL of labeled ligand solution and 50 μL of cell suspension were aliquoted into each well in this order, stirred (total reaction volume 100 μL), and incubated for one hour at 18° C. After the reaction, the reaction solution was filtered, and the filter was washed twice with 200 μL of cold PBS (200 μL of cold PBS was added and then filtered). The filter was air-dried and 25 μL of liquid sciatillator was added into each well. The radioactivity retained by the cells on the filter were measured using TopCount (Packard Instrument Co.). To calculate the ability of test compound to inhibit binding of human MCP-1 to THP-1 cells, non-specific binding determined by adding 100 ng of unlabeled human MCP-1 in place of the test compound was subtracted, while the counts with no test compound added was taken as 100%. Inhibition (%)=(1-(A-B)/(C-B))×100 (A, counts with test compound added; B, counts with 100 ng of unlabeled human MCP-1 added; C, counts with [^125I]-labeled human MCP-1 added).

Row | inhibition of MCP-1 binding to THP-1 cells | SMILES
20 | > 80% | O=C(CNC(=O)c1cccc(C(F)(F)F)c1)NC1CCCN(Cc2ccc(Cl)cc2)C1 (centres unmarked) [compound 358]
21 | > 80% | O=C(CNC(=O)c1cccc(C(F)(F)F)c1)NCC1CCN(Cc2ccc([N+](=O)[O-])cc2)CC1 [compound 878]
22 | > 80% | Cc1oc(C(C)(C)C)cc1C(=O)NCC(=O)NCC1CCN(Cc2ccc(Cl)cc2)CC1 [compound 537]
23 | > 80% | O=C(CNC(=O)c1cc2cc(F)ccc2[nH]1)NCC1CCN(Cc2ccc(Cl)cc2)CC1 [compound 554]
24 | > 80% | O=C(CNC(=O)c1cccc(Cl)c1)NCC1CCN(Cc2ccc(Cl)cc2)CC1 [compound 487]
25 | > 80% | O=C(CNC(=O)c1ccc(F)c(C(F)(F)F)c1)NCC1CCN(Cc2ccc(Cl)cc2)CC1 [compound 496]
26 | > 80% | Cc1oc(-c2ccccc2)cc1C(=O)NCC(=O)NCC1CCN(Cc2ccc(Cl)cc2)CC1 [compound 538]
27 | > 80% | O=C(CNC(=O)c1ccc(F)c(C(F)(F)F)c1)NC1CCN(Cc2ccc(Cl)cc2)C1 (centres unmarked) [compound 48]
28 | > 80% | O=C(CNC(=O)c1ccc(Cl)c(Cl)c1)NCC1CCN(Cc2ccc(Cl)cc2)CC1 [compound 547]
29 | > 80% | O=C(CNC(=O)c1cccc(Br)c1)NC1CCN(Cc2ccc(Cl)cc2)C1 (centres unmarked) [compound 31]
30 | > 80% | O=C(CNC(=O)c1cccc([N+](=O)[O-])c1)NCC1CCN(Cc2ccc(Cl)cc2)CC1 [compound 466]
31 | > 80% | O=C(CNC(=O)c1cccc(Br)c1)NCC1CCN(Cc2ccc(Cl)cc2)CC1 [compound 467]
32 | > 80% | O=C(CNC(=O)c1cccc(OC(F)(F)F)c1)NCC1CCN(Cc2ccc(Cl)cc2)CC1 [compound 492]
33 | > 80% | O=C(CNC(=O)c1cccc(C(F)(F)F)c1)NCC1CCN(Cc2ccc(Br)cc2)CC1 [compound 876]
34 | > 80% | O=C(CNC(=O)c1ccc(Cl)c([N+](=O)[O-])c1)NCC1CCN(Cc2ccc(Cl)cc2)CC1 [compound 503]

same assay, conditions: Method 1, at 100 μM

Row | inhibition of MCP-1 binding to THP-1 cells | SMILES
35 | > 80% | O=C(CNC(=O)c1cccc(C(F)(F)F)c1)NC1CCCN(Cc2ccc(Cl)cc2)C1 (centres unmarked) [compound 358]
36 | > 80% | CC(OC(=O)Nc1cccc(Cl)c1)C(=O)NCC1CCN(Cc2ccc(Cl)cc2)CC1 (centres unmarked) [compound 874]
37 | > 80% | CC(OC(=O)Nc1cccc(Cl)c1)C(=O)NC1CCCN(Cc2ccc(Cl)cc2)C1 (racemic) [compound 383]
38 | > 80% | O=C(CNC(=O)c1ccc(F)c(C(F)(F)F)c1)NC1CCN(Cc2ccc(Cl)cc2)C1 (centres unmarked) [compound 48]
39 | > 80% | O=C(CNC(=O)c1cccc(Br)c1)NC1CCN(Cc2ccc(Cl)cc2)C1 (centres unmarked) [compound 31]
40 | > 80% | CC(NC(=O)c1ccccc1)C(=O)NCC1CCN(Cc2ccc(Cl)cc2)CC1 (centres unmarked) [compound 558]
41 | > 80% | O=C(CNC(=O)c1cccc([N+](=O)[O-])c1)NCC1CCN(Cc2ccc(Cl)cc2)CC1 [compound 466]
42 | > 80% | O=C(CNC(=O)c1ccc(F)c(C(F)(F)F)c1)N[C@H]1CCN(Cc2ccc(Cl)cc2)C1 [compound 25]
43 | > 80% | O=C(CNC(=O)c1cc(C(F)(F)F)ccc1F)N[C@H]1CCN(Cc2ccc(Cl)cc2)C1 [compound 22]
44 | > 80% | O=C(CNC(=O)c1cc(F)cc(C(F)(F)F)c1)N[C@H]1CCN(Cc2ccc(Cl)cc2)C1 [compound 23]
45 | > 80% | COc1ccc(C(=O)CCCC(=O)NC2CCN(Cc3ccc(Cl)cc3)C2)cc1 (racemic) [compound 215]
46 | > 80% | O=C(CNC(=O)c1cccc(Br)c1)N[C@H]1CCN(Cc2ccc(Cl)cc2)C1 [compound 7]
47 | > 80% | O=C(CCNC(=O)c1ccc(F)c(C(F)(F)F)c1)NC1CCN(Cc2ccc(Cl)cc2)C1 (centres unmarked) [compound 131]
48 | > 80% | O=C(CNC(=O)OCc1ccccc1)NCC1CCCN1Cc1ccc(Cl)cc1 (centres unmarked) [compound 351]
49 | > 80% | O=C(CNC(=S)Nc1ccccc1)NCC1CCN(Cc2ccc(Cl)cc2)CC1 [compound 861]
50 | > 80% | O=C(CNC(=O)Nc1cccc(C(F)(F)F)c1)NCC1CCN(Cc2ccc(Cl)cc2)CC1 [compound 851]

— US6410566B1, “Cyclic amine derivatives and their use as drugs” (Teijin Limited, priority 2000, dated 2002)
